Laboratory results published in PMC4336329 (PLoS ONE, 2015).
Hit rate of the full screen: of about 310,000 compounds, about 2,200 (0.71%) showed an effect of 50% or more. The effect is printed as a negative number. Some of the results follow.

target: human ether-à-go-go-related gene (hERG) potassium channel (human, UniProt Q12809); experiment: primary screen, population patch clamp on CHO cells stably expressing hERG
Sequence (Q12809 whole entry, looked up): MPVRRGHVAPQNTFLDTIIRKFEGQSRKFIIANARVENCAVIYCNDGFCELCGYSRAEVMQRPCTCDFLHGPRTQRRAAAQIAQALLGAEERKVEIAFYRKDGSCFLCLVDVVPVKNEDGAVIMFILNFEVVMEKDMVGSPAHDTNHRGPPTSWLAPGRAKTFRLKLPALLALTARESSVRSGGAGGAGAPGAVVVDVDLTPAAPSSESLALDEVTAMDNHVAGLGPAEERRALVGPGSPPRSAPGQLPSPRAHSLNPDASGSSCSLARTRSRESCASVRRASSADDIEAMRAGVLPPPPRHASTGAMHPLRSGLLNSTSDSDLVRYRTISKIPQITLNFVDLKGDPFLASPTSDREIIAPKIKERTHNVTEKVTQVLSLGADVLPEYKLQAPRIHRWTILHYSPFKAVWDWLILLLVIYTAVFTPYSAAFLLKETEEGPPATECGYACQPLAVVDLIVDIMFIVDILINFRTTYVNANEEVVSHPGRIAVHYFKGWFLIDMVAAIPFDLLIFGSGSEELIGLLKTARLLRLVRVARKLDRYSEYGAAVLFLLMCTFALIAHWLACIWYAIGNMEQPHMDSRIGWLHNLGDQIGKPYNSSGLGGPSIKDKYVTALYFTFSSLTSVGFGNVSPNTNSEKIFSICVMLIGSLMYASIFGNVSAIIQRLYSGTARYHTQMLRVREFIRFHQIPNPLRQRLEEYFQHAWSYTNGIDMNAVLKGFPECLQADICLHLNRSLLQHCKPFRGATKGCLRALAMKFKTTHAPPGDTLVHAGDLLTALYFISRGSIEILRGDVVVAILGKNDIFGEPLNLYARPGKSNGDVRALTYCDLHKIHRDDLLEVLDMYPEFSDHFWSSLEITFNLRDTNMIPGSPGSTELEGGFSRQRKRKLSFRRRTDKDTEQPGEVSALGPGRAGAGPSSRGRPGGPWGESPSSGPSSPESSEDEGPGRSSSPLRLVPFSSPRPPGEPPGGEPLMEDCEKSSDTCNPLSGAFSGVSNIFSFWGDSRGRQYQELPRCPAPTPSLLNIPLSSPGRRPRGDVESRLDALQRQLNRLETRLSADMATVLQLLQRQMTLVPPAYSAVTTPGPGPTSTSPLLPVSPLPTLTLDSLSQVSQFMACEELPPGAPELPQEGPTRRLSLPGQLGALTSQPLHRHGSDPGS

| SMILES | hERG current change (%, negative = inhibition) at 1uM [%] |
| --- | --- |
| Cc1ccccc1C(=O)OC(C)C(=O)NCc1ccc2c(c1)OCO2 (stereo not shown) | 1.46 |
| COc1ccc(S(=O)(=O)N2CCCC2)c2ccccc12 | 21 |
| OCc1c[nH]c(=S)n1CCOc1cccc(C(F)(F)F)c1 | 12.7 |
| Cc1ccc2c(c1)N(CCC(=O)NCCN1CCOCC1)C(=O)CO2 | 7.66 |
| CN1CCC(=NNC(=O)CN(c2cccc(Br)c2)S(C)(=O)=O)CC1 | 1.22 |
| CCN(CC)CCNC(=O)c1ccc(NC(=O)C2CCN(c3ncnc4sc(C)c(C)c34)CC2)cc1 | 15.7 |
| Cc1ccc(O)c(NC(=O)c2cc3nc4c(c(C(F)(F)F)n3n2)CCc2ccccc2-4)c1 | 2.48 |
| O=C(CSc1nnc(-c2ccc(O)cc2)n1Cc1ccccc1)NNC(=O)c1ccc(Br)cc1 | 0.228 |
| O=C(NNC(=O)c1ccccc1Br)c1ccc(Cl)c(Cl)c1 | -0.397 |
| CC(C(=O)Nc1ncc2c(n1)CC(C)(C)CC2=O)N1C(=O)c2ccccc2C1=O (stereo not shown) | -12 |
| CCC12CN3CCN(CC(C3)/C1=N\NC(=O)c1ccc(Cl)cc1)C2 | 1 |
| Cc1cc(C)n(CC(=O)NNC(=O)COc2ccc(Cl)cc2Cl)n1 | 3.06 |
| COc1cc(OC)c2c(c1)C(=O)OC2 | -3.87 |
| C=CCOc1cccc(C2/C(=C(\O)c3ccc(F)cc3)C(=O)C(=O)N2CCN(C)C)c1 (stereo not shown) | 8.84 |
| COc1ccc(C)cc1NC(=O)CCCN1C(=S)NC(C)(C)CC1C (stereo not shown) | 14.7 |
| CCN(CC)NC(=S)Nc1ccccc1 | 9.86 |
| COc1ccc(CCN(CC(=O)NC2CCCC2)C(=O)CCC(=O)Nc2cc(C)on2)cc1OC | 9.11 |
| COc1cc(C(F)(F)F)c(C(=O)N(C)c2ccc(Cl)cc2)cn1 | 7.06 |
| COC(=O)c1ccc(COC(=O)c2ccc(S(=O)(=O)N3CCC(C)CC3)cc2)o1 | 7.53 |
| Cn1c(=O)oc2cc(S(=O)(=O)N3CCC(C(=O)NCc4ccc(F)cc4)CC3)ccc21 | 4.7 |
| CCCc1nc2ccccc2c(C(=O)OCc2nnc(-c3cc(OC)c(OC)c(OC)c3)o2)c1CC | 10.1 |
| COC(=O)c1c(-c2ccncc2)csc1NC(=O)c1ccoc1C | 4.49 |

| SMILES | hERG current change (%, negative = inhibition) at 1uM [%] |
| --- | --- |
| O=C(NCCc1ccccc1)C(=O)NCC1OCCN1S(=O)(=O)c1ccc2c(c1)OCCO2 (stereo not shown) | 15.3 |
| CC(C)(OC(=O)NC(=O)C(F)(F)F)C(C)(C)OC(=O)NC(=O)C(F)(F)F | 23.9 |
| CC(=O)N1CCOc2cc(S(=O)(=O)N3CCN(c4ccccc4)CC3)c(Cl)cc21 | 12.7 |
| CCc1c(C(=O)NNC(=S)NCCc2ccccc2)csc1C | 4.13 |
| Cc1c(C(=O)N2CCCC2)oc2c1-c1nn(CC(=O)NCCCOC(C)C)cc1CC2 | 16.7 |
| COC(=O)c1ccc(COc2cccc(OC)c2)o1 | 11.2 |
| COc1ccc(NC(=S)NNC(=O)C2CC2c2ccc(C)cc2)cc1 (stereo not shown) | 0.837 |
| O=C(O)c1ccc(-n2nnnc2SCc2cccc(Br)c2)cc1 | 14.6 |
| Cc1cc(=O)oc2c(C)c(OCC(=O)NCCN3CCOCC3)ccc12 | 10.8 |
| CC(=O)Nc1ccc(NC(=O)CN(c2ccc(C34CC5CC(CC(C5)C3)C4)cc2)S(C)(=O)=O)cc1 | 10.6 |
| COc1ccc(CCNC(=O)C/C(C)=N/NC(=O)C(c2ccccc2)c2ccccc2)cc1OC | -0.576 |
| O=C(NCCc1c[nH]c2ccccc12)/C(=C\c1cccnc1)NC(=O)c1ccccc1Br | -8.31 |
| COc1ccc(-c2nc3ccccc3c(=O)n2NC(=O)Cc2ccccc2)cc1 | 3.41 |
| O=C(Nc1ccon1)c1sc2ccccc2c1Cl | 11.1 |
| CCOC(=O)c1ccc(NS(=O)(=O)c2ccc3oc(=O)[nH]c3c2)cc1 | 7.04 |
| COc1ccc(CCNC(=O)NCCc2c[nH]c3ccccc23)cc1OC | 8.08 |
| C[C@]12CCC(=O)C=C1CC[C@@H]1[C@@H]2CC[C@@]2(C)[C@H]1CC[C@]2(O)C(=O)CO | 13.2 |
| CCOC(=O)CSc1ccc(C(=O)N2CCN(C)CC2)cc1[N+](=O)[O-] | 8.86 |
| CC(=O)NC(Cc1ccccc1)C(=O)N1CCN(C(=O)c2cccs2)CC1 (stereo not shown) | 5.81 |
| COc1cccc(/C=C/C(=O)OCC(=O)c2ccc3c(c2)NC(=O)CO3)c1OC | 0.422 |
| O=C(c1ccc(S(=O)(=O)Cc2cc(F)ccc2F)c([N+](=O)[O-])c1)N1CCCC1 | 7.99 |
| CCOC(=O)C(C)n1cnc2c(nnn2-c2cccc(Cl)c2)c1=O (stereo not shown) | 2.98 |

| SMILES | hERG current change (%, negative = inhibition) at 1uM [%] |
| --- | --- |
| Cc1ccc(C23CC4CC(CC(NC(=O)NN)(C4)C2)C3)cc1 | 14.4 |
| NC1=Nc2ccccc2Oc2ccccc21 | -3.79 |
| CCOc1ccc(-c2n[nH]c(=S)n2Cc2ccccc2)cc1 | 18.2 |
| CCc1nc(CNC(=O)C2CCC(=O)N(CCc3cccc(F)c3)C2)no1 (stereo not shown) | 9.51 |
| CCOc1nc(NCCO)nc(NCCC2=CCCCC2)n1 | 6.48 |
| Cc1cc(-c2n[nH]c(=S)n2-c2ccccc2C)cs1 | 12.9 |
| CCOc1cc(/C=N\Nc2nc(Nc3ccccc3)nc(N3CCOCC3)n2)ccc1OC(=O)c1ccco1 | 9.68 |
| CCOc1ccc(S(=O)(=O)NCCC(=O)NCc2ccncc2)cc1 | 5.27 |
| O=C(COc1ccc(F)cc1)NNC(=O)c1cc2ccccc2oc1=O | -8.77 |
| O=C1CCCc2nn(-c3ccccc3)nc21 | 17.4 |
| CCc1nc(N[C@@H](Cc2c[nH]c3ccccc23)C(=O)O)c2oc3ccccc3c2n1 | 0.556 |
| S=C(NCc1ccccc1)NC1CCCCC1 | 15.7 |
| COc1ccc(CNC(=O)Cn2nc(C(F)(F)F)c(Br)c2C)cc1 | 4.47 |
| NS(=O)(=O)c1ccc(CNC(=O)c2cc(-c3cccnc3)nc3ccc(Br)cc23)cc1 | 12.9 |
| NC(=O)Cn1c(=O)n(Cc2ccccc2)c(=O)c2cccnc21 | 8.1 |
| CC(NC(=O)/C(=C\c1cccc([N+](=O)[O-])c1)NC(=O)c1ccco1)C(=O)O (stereo not shown) | 42.3 |
| CC(=O)OCC(=O)N1N=C(c2ccc3ccccc3c2)CC1c1ccccc1 (stereo not shown) | 2.47 |
| O=C(COC(=O)c1ccc(S(=O)(=O)N2CCOCC2)cc1)Nc1ccccc1F | 5.91 |
| Cc1cc(C)n2nc(SCc3c(F)cccc3Cl)nc2n1 | 11.1 |
| O=C(COC(=O)c1ccc(S(=O)(=O)NCc2ccco2)cc1)Nc1ccccc1OC(F)F | -0.181 |
| CC1(c2ccc(OC(F)F)cc2)NC(=O)N(CC(=O)Nc2cccc(F)c2)C1=O (stereo not shown) | 4.87 |
| Cc1ccc(NC(=O)COC(=O)C2CSC3(C)CCC(=O)N23)c(C)c1 (stereo not shown) | 8.46 |

| SMILES | hERG current change (%, negative = inhibition) at 1uM [%] |
| --- | --- |
| Br.N=c1n(CC(=O)c2ccc([N+](=O)[O-])cc2)c2ccccc2n1Cc1ccccc1Cl | 9.63 |
| CCO[C@@H]1OC(C(=O)NC2CC2)=C[C@H](c2ccc(Br)cc2)[C@H]1CCCO | 4.37 |
| Cc1ccc(CC2CC(=O)N(c3nc(C)cc(C)n3)C2=O)cc1 (stereo not shown) | 6.69 |
| COc1ccc(N2CCN(CC(O)c3c[nH]c4ccc(OC)cc34)CC2C)cc1 (stereo not shown) | -50.6 |
| CC(=O)n1cc(-c2ccncc2)c2ccccc21.Cl | 6.42 |
| N[C@@H](C(=O)N[C@@H]1C(=O)N2C(C(=O)O)=C(Cl)CS[C@H]12)c1ccccc1 | 16.4 |
| CCOc1ccc(CN(C)C(=O)[C@H](C)NC(=O)c2ccco2)cc1OC | 11 |
| C=CCn1c(=NC(=O)C2COc3ccccc3O2)sc2cc(S(N)(=O)=O)ccc21 (stereo not shown) | 11.9 |
| Cc1ccc(S(=O)(=O)Nc2cccc3cccnc23)cc1 | -7.95 |
| N#Cc1c(N2CCCCC2)nc(N)c2c(N)nc3c(c12)CC(CCl)O3 (stereo not shown) | 2.32 |
| Cn1c(O)c(C(=N)COc2ccccc2)c(=O)n(C)c1=O | -7.09 |
| CN1CCCN(Cc2ccccc2C(F)(F)F)CC1 | 14.8 |
| CCCN(C(=O)CSc1nc2c(cnn2-c2ccccc2)c(=O)[nH]1)C1CCS(=O)(=O)C1 (stereo not shown) | 7.76 |
| Cc1cccc2cc(CN(Cc3nnnn3Cc3ccccc3)C3CCCC3)c(=O)[nH]c12 | -2.4 |
| CC(C)(C)c1cc(C(=O)Nc2ccccc2)ccn1 | 11.7 |
| COc1ccc(C(=O)Nc2ncc3c(n2)CC(C)CC3=O)cc1 (stereo not shown) | 4.21 |
| CC(C)CC(C(=O)NC1CCCC1)N(Cc1cccs1)C(=O)c1snc(C(N)=O)c1N (stereo not shown) | -1.1 |
| CS(=O)(=O)c1ccc2nc(NC(=O)CCN3C(=O)c4ccccc4C3=O)sc2c1 | 12.4 |
| Cc1nc(SCC(=O)c2ccc(F)c(F)c2)[nH]c(=O)c1Oc1ccc(F)cc1 | 6.03 |
